Laboratory results: PubChem BioAssay (NCI)
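Method: 48-hour compound exposure of cells in 96-well plates, five concentrations, linear interpolation of endpoints. At the GI50, growth is halved. TGI: concentration producing complete growth inhibition.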

Test system: NCI-H322M lung
Assay: inhibition of tumour cell growth, NCI panel, 48 h

| Structure (SMILES) | GI50 [nM] | TGI [nM] |
| --- | --- | --- |
| COc1cc2c(cc1OC)C(Sc1ccc(F)cc1)c1c(nc(N)c(C#N)c1N)O2 (stereo not drawn) | 1430 | 2750 |
| CCn1c2ccccc2c2cc(-n3nncc3-c3ccccc3)ccc21 | 603 | > 100000 |
| O=C(NNc1nc2cc(F)ccc2n2c(CN3CC4(COC4)C3)ccc12)c1cnccn1 | 475 | 49800 |
| CCCn1cnc2c(c1=N)C(c1ccc(OC)cc1)c1sc3c(CC)cccc3c1O2 (stereo not drawn) | 2930 | > 49200 |
